Paper PMC1800349
Results are given in words; binding and its absence hold for the method and conditions named. Binding seen in cells or lysates may run through a third protein. Some entries that bind do so weakly or less than the wild type. For part of these data: Tags and fused reporters may be left off the sequences shown. One block for each molecule: values may come before it.

Assays:
[1] = target: T1, Pafah1b3-MYC (mouse) (UniProt Q61205); test: co-IP; proteins co-expressed in transfected 293T cells; lysis in PBS, 5 mM EDTA, 1% Triton X-100, pH 7.4; antibodies against the tags 1-2 hours at 4°C, protein A/G agarose beads; Western blot (Fig. 1A, 1C, 2; the text says COS7 for Fig. 2)
T1 sequence: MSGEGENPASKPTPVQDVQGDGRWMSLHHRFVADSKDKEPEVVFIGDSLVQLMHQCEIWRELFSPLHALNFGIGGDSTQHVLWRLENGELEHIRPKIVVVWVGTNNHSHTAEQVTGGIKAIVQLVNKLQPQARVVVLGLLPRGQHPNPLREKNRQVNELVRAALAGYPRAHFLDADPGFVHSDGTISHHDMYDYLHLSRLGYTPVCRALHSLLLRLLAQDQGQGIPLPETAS

[2] = target: T2, FLAG-Pafah1b2 (mouse) (UniProt Q61206); test: as above
T2 sequence: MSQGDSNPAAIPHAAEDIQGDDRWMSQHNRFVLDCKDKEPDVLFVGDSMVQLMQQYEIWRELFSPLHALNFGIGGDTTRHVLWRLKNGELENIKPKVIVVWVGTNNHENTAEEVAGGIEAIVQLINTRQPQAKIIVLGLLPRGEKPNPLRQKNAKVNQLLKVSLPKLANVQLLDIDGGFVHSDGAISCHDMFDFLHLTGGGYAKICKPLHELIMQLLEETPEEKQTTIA

[3] = target: T3, FLAG-tagged Lis1, in vitro translated (mouse) (UniProt P63005); test: co-IP; proteins translated in vitro (TNT), 35S-labelled, combined and immunoprecipitated with FLAG antibody (Fig. 1B) or antibodies against Dab1, Pafah1b2 or Pafah1b3 (Fig. 1D); autoradiography
T3 sequence (chain, 35S-labeled methionine): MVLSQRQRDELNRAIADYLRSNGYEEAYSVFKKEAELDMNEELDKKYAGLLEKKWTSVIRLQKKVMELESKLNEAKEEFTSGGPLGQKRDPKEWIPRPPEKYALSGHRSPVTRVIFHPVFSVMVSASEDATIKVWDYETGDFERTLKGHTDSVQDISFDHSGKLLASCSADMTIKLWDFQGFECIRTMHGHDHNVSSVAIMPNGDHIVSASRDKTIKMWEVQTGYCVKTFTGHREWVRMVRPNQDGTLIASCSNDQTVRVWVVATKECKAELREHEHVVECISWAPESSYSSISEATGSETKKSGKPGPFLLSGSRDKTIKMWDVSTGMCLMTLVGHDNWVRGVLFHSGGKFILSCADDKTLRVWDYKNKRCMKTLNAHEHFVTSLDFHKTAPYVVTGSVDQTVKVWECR

[4] = target: T4, Pafah1b2, in vitro translated (mouse) (UniProt Q61206); test: as above
T4 sequence (chain, 35S-labeled methionine): T2 sequence

[5] = target: T5, Pafah1b3, in vitro translated (mouse) (UniProt Q61205); test: as above
T5 sequence (chain, 35S-labeled methionine): T1 sequence

[6] = target: in vitro-translated VLDLR (human) (UniProt P98155); test: co-IP; competition: in vitro translated (TNT), 35S-labelled proteins; equal amounts (50 μl) of VLDLR and one partner with increasing amounts of the competitor; immunoprecipitated with polyclonal antibodies against VLDLR; autoradiography
[7] = target: VLDLR-GFP fusion protein (human) (UniProt P98155); test: co-IP; proteins co-expressed in transfected 293T cells; lysis in PBS, 5 mM EDTA, 1% Triton X-100, pH 7.4; antibodies against the tags 1-2 hours at 4°C, protein A/G agarose beads; Western blot (Fig. 1A, 1C, 2; the text says COS7 for Fig. 2)
[8] = target: HA-tagged VLDLR (human) (UniProt P98155); test: as above

Molecule: HA-tagged VLDLR (from UniProt P98155-1 28-873) (receptor)
- binding [1]: binds

Molecule: VLDLR(AAxA)-GFP (from UniProt P98155-1 28-873) (receptor)
- binding [1]: no binding
- binding [2]: no binding

Molecule: in vitro-translated VLDLR (from UniProt P98155-1 1-873) (receptor)
- binding [3]: no binding
- binding [4]: binds
- binding [5]: binds

B2: Pafah1b3, in vitro translated (protein, UniProt Q61205 1-232)
chain: T1 sequence
modifications: 35S-labeled methionine
- binding [6]: binds

B3: Pafah1b3-MYC (protein, UniProt Q61205 1-232)
chain: T1 sequence
- binding [7]: binds
- binding [8]: binds

Next, values leading:

- binding [1]: binds
- binding [2]: binds
Molecule: VLDLR-GFP fusion protein (from UniProt P98155-1 28-873) (receptor)

- binding [1]: no binding
- binding [2]: no binding
Molecule: VLDLRΔ809-GFP (from UniProt P98155-1 28-809) (domain or fragment)

- binding [1]: no binding
- binding [2]: no binding
Molecule: VLDLRΔ825-GFP (from UniProt P98155-1 28-825) (domain or fragment)

- binding [1]: binds
- binding [2]: binds
Molecule: VLDLRΔ855-GFP (from UniProt P98155-1 28-855) (domain or fragment)

- binding [6]: binds
B1: Dab1, in vitro translated (protein, UniProt P97318-2 1-555)
chain: MSTETELQVAVKTSAKKDSRKKGQDRSEATLIKRFKGEGVRYKAKLIGIDEVSAARGDKLCQDSMMKLKGVVAGARSKGEHKQKIFLTISFGGIKIFDEKTGALQHHHAVHEISYIAKDITDHRAFGYVCGKEGNHRFVAIKTAQAAEPVILDLRDLFQLIYELKQREELEKKAQKDKQCEQAVYQTILEEDVEDPVYQYIVFEAGHEPIRDPETEENIYQVPTSQKKEGVYDVPKSQPVSAVTQLELFGDMSTPPDITSPPTPATPGDAFLPSSSQTLPGSADVFGSMSFGTAAVPSGYVAMGAVLPSFWGQQPLVQQQIAMGAQPPVAQVIPGAQPIAWGQPGLFPATQQAWPTVAGQFPPAAFMPTQTVMPLAAAMFQGPLTPLATVPGTNDSARSSPQSDKPRQKMGKESFKDFQMVQPPPVPSRKPDQPSLTCTSEAFSSYFNKVGVAQDTDDCDDFDISQLNLTPVTSTTPSTNSPPTPAPRQSSPSKSSASHVSDPTADDIFEEGFESPSKSEEQEAPDGSQASSTSDPFGEPSGEPSGDNISPQDGS
modifications: 35S-labeled methionine
